# Sequences with one replicate were seen in a single cluster, so their values are uncertain.
# System: ATP
# Assay: switch fluorescence ratio, 500 uM ATP over buffer (Cy3 cluster intensity, sum of 5 cycles each) (fold (ratio)); higher = stronger signal-on switching upon ATP binding; sequences stand for … in TCGTCGGCAGCGTCAGATGTGTATAAGAGACAGTTTTTTTTTTTTTTTTTTTTTTTTT…TC
# Conditions: aptamer strand: ATP DNA aptamer (quencher-CACCTGGGGGAGTATTGCGGAGGAAGG + anchor), 100 nM annealed; ATP concentration: 500 uM; one replicate
# Method in brief: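 Exposure to 500 uM ATP lasted 15 min at 22 °C before imaging, and a selection-buffer image was taken beforehand, for Cy3-labelled switching-strand clusters on a modified Illumina MiSeq flow-cell annealed to 100 nM quencher-labelled ATP aptamer. Five buffer/ATP cycles were run with NaOH stripping and re-annealing between them. The fluorescence ratio per cluster is summed target-cycle over summed buffer-cycle Cy3 intensity, averaged per switch-domain sequence. Clusters outside 100-1000 RFU were excluded.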
row,Sequence,switch fluorescence ratio
1,TAAAGGTGAT,1.11
2,GAGACGTTTC,0.948
3,GCAGTTCAAT,1.04
4,GATAAGCTGG,1
5,CGTTGTTTGA,0.971
6,AACAGTGGTA,1
7,TGACAAGAGC,1.1
8,CCGTAGGTGG,1.08
9,CCCGGGTTTG,1.05
10,AACTGCAGCC,1.04
11,CGGCTAGATA,0.973
12,TTCAGTCATT,1
13,GCGCTTGCTT,1.11
14,TGGGAACATG,1.01
15,TTCCGTTGG,1.35
16,CAATCCTGTG,0.989
17,CGATAGGGC,0.984
18,GTCAAAGAGT,1.02
19,GCCGTCGACG,0.971
20,GGACGAAAGT,1.03
21,CGGCAGGTCC,1
22,TAAACGGGTG,1.07
23,ACTGGATCTT,1.05
24,TGGTTGTCAT,1.01
25,AATGAGGGCT,0.989
26,AAAGATAGAC,1.01

row,Sequence,switch fluorescence ratio
1,TAACCACCTC,1.16
2,AAAGGGTACC,1.02
3,TTCTCATATG,0.991
4,GGGCAGGTTA,1.04
5,ATATAAACCG,1.08
6,GTCTGGCTTT,1.04
7,GGGGCGTCGA,1.01
8,CTTTCTCTGC,2.73
9,CTTCTCAAAA,1.11
10,GGGCGGTAGT,1
11,TGTAACTTGG,0.99
12,CTGCTAGGTT,1
13,ATAGCGGCTT,0.975
14,GTAGGAAGAC,4.62
15,GATAGAGTTT,1
16,GACCCCTGCT,1.01
17,TTTGTATGTC,1.04
18,ATGCAGTGAG,0.995
19,GACTTTACTA,1.25
20,CGTCGACGCG,1.01
21,GGAACATACG,1.29
22,AGAGTGGAGT,1.04
23,GGGACTACTG,1.07
24,AACATCATGT,1.01
25,AATTCTCAT,0.984
26,AACGGTATAA,1.09

row,Sequence,switch fluorescence ratio
1,TAATTACGAC,1.1
2,GAGCTATTAC,3.19
3,CGCTCATTGT,1.03
4,TAACCGTGGG,1.03
5,TCAGAATCAA,1.04
6,CCGCCCAGGT,1.03
7,TCTTATTCGG,1.05
8,TAAGCACGGC,1.04
9,TAAGTCTAG,0.996
10,GGAGGCTTAC,1.44
11,GGTTCGTTCA,1.01
12,TGATGACATG,0.935
13,GAGATTAGGG,1.02
14,AGGTCGTGTG,0.972
15,AAAACATAAT,0.94
16,GCCGGTTTGT,1.01
17,TACTGTTGTT,0.976
18,CGGTTGATTG,0.981
19,GACGGCTCTG,0.994
20,TAGGGTGCGA,1.01
21,ATTACTTCAT,0.988
22,TTCATGCATT,0.964
23,ATTATGGTCC,0.949
24,CCTTCATGAC,1.64
25,GATGAATCTA,0.996
26,GCCCCCCTGG,1.18

row,Sequence,switch fluorescence ratio
1,TGACAGCTGT,1.04
2,CAGCTGCA,1.05
3,GCAGCGTCTA,0.96
4,GGTTTAAACA,1.01
5,AATAGCCTGG,0.994
6,GGTGCCGAGA,0.96
7,CGGGCGAGAG,1.01
8,TGTATAAAGC,0.947
9,AAGAGAGGAG,1.01
10,TGCGTTATAT,2.17
11,GATATAAGGT,1.03
12,TTTAACCCGT,0.982
13,TAGCCGATCT,1.02
14,GGCACGAACG,1.26
15,GTTTTATACG,1.02
16,GGGAGCTCGT,1.01
17,CGTAGTTTTT,0.973
18,AGGCTTATGT,0.985
19,GAAAGCGTGC,1.06
20,GCGGGGGCA,1.11
21,GCTGTGTAAG,0.971
22,TGCCGGGTTT,0.99
23,GTTTGTCTTA,0.967
24,CCCCACTGTT,1.06
25,AATCGACGCT,1.33
26,TTGTGATTTA,0.977

row,Sequence,switch fluorescence ratio
1,AGTGAGCGG,1.05
2,GACAAAAGGG,0.96
3,ATTCAGATA,1.05
4,CAAAGTACAT,1.17
5,GGTGGTTTG,1.03
6,ATCGCACATT,1.11
7,ACAATACAAA,1.07
8,TTTCACGTCT,0.952
9,ATGGAGTGGT,1.04
10,TGTTTAAAGA,1
11,GAAGATGTTA,0.998
12,CTAGTGCTTT,1.02
13,CTAACGGCGT,1.13
14,TGAGCAACTT,1.07
15,GAGCTTTACA,1.02
16,GAACCCGCG,1.07
17,TAACTTAAAT,1.02
18,TTCAAGAAGA,0.997
19,CAGGGTTCAG,1
20,TCCGGATTAT,0.995
21,CGTCGTAACT,0.981
22,AAGTGATGT,0.979
23,TCCAGCTGCC,1.08
24,TCATTTCGAT,0.947
25,AGTTAGGAC,0.989
26,CATGGGGCCA,0.951

row,Sequence,switch fluorescence ratio
1,GTCAGGGTTA,1
2,TCGGAAAAGC,1.01
3,ACTTTTTTCA,0.992
4,TAGGGGAGCC,0.995
5,GTGTCGATTG,0.968
6,GATGACTTTC,1.05
7,GGGCTTCGGG,1.05
8,ACGACAATCG,0.987
9,ATATTCTATA,0.99
10,TTCGCGCC,1.11
11,TACGTTACG,1.21
12,CGAGTATTTC,0.977
13,TTGAGCTCAT,1.02
14,CAGGAGGGTA,1.01
15,TAAATCATT,1.01
16,CCTCTAGACC,2.46
17,GCAAAGGTTG,0.997
18,AATACAGGCA,0.969
19,GAGGTCGCGG,0.989
20,CTGAGACTAG,1
21,GCTCAGTGGG,1.08
22,GACGCCTATC,1.46
23,AGTGGGGCCT,0.997
24,CAGTTGGTGG,0.993
25,GTGCAAAGGT,0.997
26,GGGTGTCTAT,0.943

row,Sequence,switch fluorescence ratio
1,CGTCTTAGAG,1.03
2,TTGTTCGCCA,1.04
3,CACGGAAGGT,1.1
4,CACAGAAGCA,1.06
5,ATGGGGACTG,1.1
6,CGGAATCTTC,1.21
7,TGGGAATAGC,2.26
8,TGATACTTTA,1.01
9,TTCATTCTTG,1.01
10,TTTAGAGCCA,0.991
11,AATGCTTCGT,1.03
12,TCGTTGTGCA,1.01
13,GGCGTATAAA,0.988
14,AAACTTACG,1.34
15,CTTTGAAACC,1
16,ATCGCTTTTC,1.15
17,GGGGACGCAA,3.29
18,TCCGGATATG,0.993
19,GCACGATGTA,1.03
20,ATATCAGACC,0.965
21,TGGCGCGGTA,1.07
22,CCAAACTCTT,1.03
23,CTTGGACTCA,1.02
24,GGGCTCACCC,1.04
25,TTTGTAAG,0.975
26,GCACCACCTT,1.21

row,Sequence,switch fluorescence ratio
1,CGTAAAGAAT,1.02
2,CACTGTCCTC,1.06
3,GAGAAACCTA,1.13
4,CGTGTGCGTC,1.08
5,GCCAGATCCG,1.02
6,ACTCGTTTGA,1.04
7,CGGATGGAT,1.01
8,ATTCGACCGC,1.44
9,AAAGGACTAG,1.03
10,GTAAGTGTGA,1.02
11,CCTGGGGGT,0.98
12,TTCAGAACCT,1.73
13,TGATAAAGAA,1.01
14,TTGGTGATTC,1.02
15,TCGCGGGCCT,1.03
16,CACTGTAAGC,1.09
17,AAAATACTGG,1.01
18,CGCAAACGGA,2.61
19,TTAGTAAAAC,1.17
